From article PMC4336329 (PLoS ONE, 2015)
Among all 310,000 compounds or so, about 2,200 (0.71%) showed an effect of 50% or more. Effects have a minus sign here. The list shows a part of the results.

Each molecule was assayed against human ether-à-go-go-related gene (hERG) potassium channel (human, UniProt Q12809) (assay: primary screen, population patch clamp on CHO cells stably expressing hERG).
Chain of human ether-à-go-go-related gene (hERG) potassium channel (Q12809 whole entry, looked up): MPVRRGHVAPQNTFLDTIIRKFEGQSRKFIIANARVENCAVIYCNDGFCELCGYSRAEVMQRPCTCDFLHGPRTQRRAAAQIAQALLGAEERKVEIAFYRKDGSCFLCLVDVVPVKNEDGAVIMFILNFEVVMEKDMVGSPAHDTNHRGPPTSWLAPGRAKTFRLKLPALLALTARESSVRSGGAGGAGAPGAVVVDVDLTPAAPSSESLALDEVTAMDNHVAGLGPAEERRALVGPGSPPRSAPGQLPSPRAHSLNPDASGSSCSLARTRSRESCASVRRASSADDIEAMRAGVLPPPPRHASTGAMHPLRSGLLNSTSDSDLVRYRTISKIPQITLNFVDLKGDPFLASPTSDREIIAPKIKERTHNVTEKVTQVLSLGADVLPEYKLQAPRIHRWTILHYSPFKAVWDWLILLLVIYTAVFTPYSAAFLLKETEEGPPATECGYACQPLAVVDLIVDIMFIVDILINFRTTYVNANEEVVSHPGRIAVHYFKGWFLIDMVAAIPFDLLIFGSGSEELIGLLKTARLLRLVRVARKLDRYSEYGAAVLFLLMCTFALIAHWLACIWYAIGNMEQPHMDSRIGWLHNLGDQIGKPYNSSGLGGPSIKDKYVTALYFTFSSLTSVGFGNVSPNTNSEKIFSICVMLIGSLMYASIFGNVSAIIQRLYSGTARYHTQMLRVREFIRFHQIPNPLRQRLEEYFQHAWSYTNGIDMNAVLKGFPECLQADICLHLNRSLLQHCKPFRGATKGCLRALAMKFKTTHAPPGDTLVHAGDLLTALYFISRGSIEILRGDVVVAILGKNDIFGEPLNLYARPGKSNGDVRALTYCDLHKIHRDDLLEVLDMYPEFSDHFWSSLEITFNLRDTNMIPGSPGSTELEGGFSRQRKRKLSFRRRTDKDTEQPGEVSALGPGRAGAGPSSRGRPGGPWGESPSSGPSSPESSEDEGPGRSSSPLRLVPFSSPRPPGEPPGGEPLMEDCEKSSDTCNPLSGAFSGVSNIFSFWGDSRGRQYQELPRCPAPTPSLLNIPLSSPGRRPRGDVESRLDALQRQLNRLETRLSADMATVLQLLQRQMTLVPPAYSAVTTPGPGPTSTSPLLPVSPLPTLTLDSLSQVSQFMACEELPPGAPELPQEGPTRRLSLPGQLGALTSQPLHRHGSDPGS

SMILES	hERG current change (%, negative = inhibition) at 1uM
CC(C)c1ccc(/C=C/C(=O)O)cc1	8.72%
COc1cc(/C=C/c2cc(OC(C)=O)c3ccccc3n2)c(OC(C)=O)c([N+](=O)[O-])c1	9.99%
C/C(=N\NC(=O)c1c(Cl)cnn1C)c1cccc(NC(=O)COc2ccccc2)c1	9.23%
COc1ccccc1N1CCN(CCCCOc2ccc(C)cc2C)CC1.O=C(O)C(=O)O	-4.13%
COc1cc(OC)cc(-c2nc3nc(C)c(CCC(=O)NCc4ccco4)c(C)n3n2)c1	5.21%
CN1CCN(Cc2cc(=O)n3ccsc3n2)CC1	11.7%
CCC(=O)c1cn([C@@H](CCC(OC)OC)CC(=O)OC(C)(C)C)cc1CC	13%
c1ccc(CSc2cc3ccccc3[nH]2)cc1	10.1%
COc1cc(Nc2cc(C)nc3ncnn23)cc(OC)c1OC	9.01%
CC(C)OCCCNC(=O)Nc1cccc2ccccc12	1.49%
CC(C)Cc1nc2oc3c(N4CCN(CCO)CC4)ncnc3c2c2c1CCCC2	0.842%
Cc1ccc(NC(=O)c2cccc(OCc3c(C)noc3C)c2)cc1	-0.977%
NC(=O)CSc1oc(-c2ccco2)nc1S(=O)(=O)c1ccc(F)cc1	13.3%
Cc1n[nH]c(C)c1N1C(=O)c2cccc3c(N4CCCCCC4)ccc(c23)C1=O	8.88%
O=C1CC(N2CCC(n3c(=O)[nH]c4ccccc43)CC2)C(=O)N1c1ccc(F)cc1 (stereo not shown)	7.15%
Cc1ccccc1NC1(C#N)C(=O)Nc2ccccc21 (stereo not shown)	13.4%
Cc1sc(NC(=O)CSc2nnnn2C2CCCCC2)c(C#N)c1C	6.31%
COc1ccc(C2=Nn3c(nnc3-c3ccncc3)SC2)cc1OC	-40.3%
CC(C)(C)c1ccc(C(=O)Nc2ccc(Oc3cccnc3)nc2)cc1	-3.27%
COc1ccc(/C=C2\CCCC3C2=NN(C(=O)CSc2ncn[nH]2)C3c2ccc(OC)cc2)cc1 (stereo not shown)	16.5%
COc1ccc(CC(=O)N/N=C(\C)c2cccnc2)cc1OC	3.32%
COc1cccc(N2CC(C(=O)Nc3nnc(SCc4ccccn4)s3)CC2=O)c1 (stereo not shown)	9.96%

SMILES	hERG current change (%, negative = inhibition) at 1uM
CCN(CC)S(=O)(=O)c1cc(NS(=O)(=O)c2ccc(Cl)c(C(=O)O)c2)ccc1C	7.28%
O=C(CCN1C(=O)C2CCCCC2C1=O)Nc1ccc(OC(F)F)cc1 (stereo not shown)	7.34%
O=C(N/N=C/c1cc2c(c([N+](=O)[O-])c1)OCO2)c1ccncc1	13.8%
N#Cc1c(-c2cccs2)cc(-c2cccs2)[nH]c1=O	10.5%
Cc1ccc(C)c(NC(=S)c2nc3ccccc3s2)c1	14.5%
Cc1ccc(S(=O)(=O)N(CCCN2CCCC2=O)Cc2cc3c(C)ccc(C)c3[nH]c2=O)cc1	-19.9%
COC(=O)C1Cc2ccccc2CN1S(=O)(=O)c1ccc(C)cc1 (stereo not shown)	15.7%
CCS(=O)(=O)NCC(c1ccco1)N1CCN(c2ccccc2F)CC1 (stereo not shown)	0.269%
CN1CCN(C(=O)c2ccc(C(C)(C)C)cc2)CC1	-2.13%
COC(=O)C(=CC(=CN(C)C)C=C(C(=O)OC)C(=O)OC)C(=O)OC	15.4%
CCOC(=O)C(=O)Nc1ccc(Oc2ccccc2)cc1	9.34%
CC(=O)Nc1cccc(NC(=O)CSc2nnc(Cc3cccn3C)n2-c2ccc(C)cc2)c1	6.43%
Cc1ccc(NC(=O)c2ccc3c(c2)C(=O)N(CC2CCCO2)C3=O)cc1C (stereo not shown)	2.94%
CN(c1ccccc1C(=O)NC1CC2CCC1C2)S(=O)(=O)c1ccccc1 (stereo not shown)	4.75%
COc1cc(OC)c2c(c1)OCC1CON(C)C21 (stereo not shown)	3.38%
CC(C)c1ccc(S(=O)(=O)c2cnc(=S)[nH]c2N)cc1	9.45%
O=[N+]([O-])c1ccc2cn[nH]c2c1	14.4%
COC(=O)CSc1nnc(-c2ccc3c(c2)OCO3)n1C	21.3%
N#Cc1c(NC(=O)C2CCCO2)sc2c1CCCCCC2 (stereo not shown)	7.08%
COc1ccc(-n2cnnc2SCC(=O)N2CCN(S(=O)(=O)c3ccccc3)CC2)cc1	1.1%
C/C(=N\Nc1ccc2nncn2n1)c1ccc(Cl)s1	-1.89%
CC(CC(=O)NCc1ccc(F)cc1)c1ccccc1 (stereo not shown)	11.1%

SMILES	hERG current change (%, negative = inhibition) at 1uM
O=C(CS(=O)(=O)Cc1ccccc1)Nc1ccc(Br)cc1F	11.9%
Oc1ccccc1-c1cc(-c2cccc(F)c2)n[nH]1	-4.21%
Brc1ccc(CN2CCSCC2)cc1	-30.8%
COc1ccc2c(CC(=O)Nc3ccc(OC)c(NS(=O)(=O)c4ccc(F)cc4)c3)coc2c1	9.87%
CC(C)CCOc1ccc(NC(=O)C2OC3OC(C)(C)OC3C3OC(C)(C)OC23)cc1 (stereo not shown)	14.6%
CCc1cc2c(=O)c(-c3nc4ccccc4n3C)c(CCCC(=O)O)oc2cc1OC(=O)C(C)(C)C	14.8%
CN(CC(=O)Nc1ccc(F)cc1)C(=O)COC(=O)Cc1c(F)cccc1Cl	6.13%
COC(=O)[C@@H](NC(=O)c1ccc(OC2CCN(Cc3ccccn3)CC2)cc1)C(C)C	4.8%
COc1ccc(/C=C/C(=O)NCCc2ccc(S(N)(=O)=O)cc2)cc1	12.5%
CC(Cl)C(=O)c1c[nH]c2ccccc12 (stereo not shown)	16.5%
CC(=O)Nc1ccc(NC(=O)CSc2nc(=O)n3cccc(C)c3n2)cc1	10.9%
Cc1ccc(S(=O)(=O)NC(=O)NCc2ccc(Cl)cc2)cc1	10.1%
CC(C)(C)n1nc2c(c1NC(=O)c1ccc(S(=O)(=O)N3CCCC3)cc1)CS(=O)C2 (stereo not shown)	11%
Cc1onc(-c2ccc(Cl)cc2)c1-c1ccnc(SCC(=O)Nc2cc(Cl)cc(Cl)c2)n1	6.83%
CC(=O)Nc1sc2c(c1C(c1cccc(Cl)c1)N1CCN(CCO)CC1)CCCC2 (stereo not shown)	-3.58%
CCc1ccc(Nc2ccc(S(=O)(=O)N3CCOCC3)cc2[N+](=O)[O-])cc1	1.27%
COc1ccc(CCn2c(C)cc(C(=O)CSc3nnnn3-c3ccccc3)c2C)cc1OC	2.85%
Cc1cc2c(SCC(=O)NC3CCCC3)ncnc2s1	6.83%
Cc1ccc(C(=O)N(Cc2nc3ccccc3c(=O)[nH]2)C2CCCC2)cc1	13.2%
COc1cccc(-c2c(-c3cc(OC)cc(OC)c3)n(C)c3ccc(-c4cnc(OC)nc4)cc23)c1	14.5%
Brc1ccc(-c2nnc3ccc(Nc4ccccc4)nn23)cc1	15.3%
COc1ccc(/C=N\NC(=O)C2CCCC2)cc1Br	16.6%

SMILES	hERG current change (%, negative = inhibition) at 1uM
COc1cc(CNCc2cccnc2)ccc1OCc1ccccc1.Cl	-1.31%
CCCC(=O)NCc1nc2ccccc2n1CC(=O)c1ccccc1	3.78%
COc1cccc(N2CCN(C(=S)Nc3ccccc3OC)CC2)c1	14.2%
CCOC(=O)CSC1=C(C#N)C(c2ccccc2OC)CC(=O)N1 (stereo not shown)	9.93%
O=c1[nH]nc(-c2ccc(OCc3ccc(Cl)cc3Cl)cc2)o1	8.74%
CCOC(=O)c1cccc(NC(=O)CC2Oc3ccccc3NC2=O)c1 (stereo not shown)	8.69%
COc1ccc(-c2nnsc2N2C(=O)c3ccccc3C2=O)cc1	13.2%
c1ccc(C2CC3CC(c4ccco4)N2O3)cc1 (stereo not shown)	9.62%
COc1ccc(-n2c3c(cc(C(=O)NCC(=O)c4ccccc4)c2=O)C(=O)CC(C)(C)C3)cc1	4.25%
CC(C)c1ccc(Nc2ncccc2C(=O)O)cc1	11.2%
CC(=O)NCCCc1nc2ccccc2n1Cc1ccccc1F	5.18%
Cc1ccc2c(c1)c1c(n2CC(O)Cn2c(C)nc3ccccc32)/C(=N\O)CCC1 (stereo not shown)	11.3%
Cn1c(=O)c2[nH]c(N=Nc3ccc(N)cc3N)nc2n(C)c1=O	21%
COc1ccccc1NC(=O)C(C)OC(=O)CCNS(=O)(=O)c1cccc(C(F)(F)F)c1 (stereo not shown)	-1.23%
Cc1ccc(-c2cc(-c3ccccc3)cc(-c3ccccc3)[n+]2-c2ccc(C(=O)O)cc2)cc1.[O-][Cl+3]([O-])([O-])[O-]	7.88%
COc1ccc(CN(C(=O)c2cccs2)c2ccccc2C(=O)O)cc1	9.94%
CCCC(=O)Nc1ccc(-c2csc(NNC(C)=O)n2)cc1	8.09%
CCOc1ccccc1NC(=O)C1CCN(S(=O)(=O)c2ccc(OC)c(OC)c2)CC1	10.3%
CN(C)c1ccc(/C=C/c2cc[n+]([O-])cc2)cc1	8.96%
COc1cccc(C2C(C#N)=C(N)Oc3cc(C)n(Cc4ccco4)c(=O)c32)c1 (stereo not shown)	-0.236%
Cc1cc(C)nc(N2CCC(C(=O)NCc3ccccc3F)CC2)n1	1.75%
COc1ccc(OCc2nnc(SCC(=O)N3c4ccccc4Sc4ccc(Cl)cc43)o2)cc1	11.2%
